# From PubChem BioAssay AID1476 (National Center for Advancing Translational Sciences (NCATS), 2009)
# Where “and” joins values, the source holds several entries; their conditions need not be identical. Equal entries are not always repeated. About 4,500 (2.2%) of roughly 200,000 compounds were called active. This list was built around the results that the source calls inconclusive (neither active nor inactive); the mix of calls is not that of the screen. The call rests on the fitted dose curve; in most records, active means well fitted inhibition curve with a large enough effect; inconclusive means small, poorly fitted or top-dose-only effect, or effect the other way; inactive means flat fitted curve, though single readings scatter. Potencies beside an inconclusive call are fits to weak or partial responses and may not hold up.
# Biological target: Cruzipain (Trypanosoma cruzi) (UniProt P25779)
# Chain of UniProt P25779 (P25779 whole entry, looked up): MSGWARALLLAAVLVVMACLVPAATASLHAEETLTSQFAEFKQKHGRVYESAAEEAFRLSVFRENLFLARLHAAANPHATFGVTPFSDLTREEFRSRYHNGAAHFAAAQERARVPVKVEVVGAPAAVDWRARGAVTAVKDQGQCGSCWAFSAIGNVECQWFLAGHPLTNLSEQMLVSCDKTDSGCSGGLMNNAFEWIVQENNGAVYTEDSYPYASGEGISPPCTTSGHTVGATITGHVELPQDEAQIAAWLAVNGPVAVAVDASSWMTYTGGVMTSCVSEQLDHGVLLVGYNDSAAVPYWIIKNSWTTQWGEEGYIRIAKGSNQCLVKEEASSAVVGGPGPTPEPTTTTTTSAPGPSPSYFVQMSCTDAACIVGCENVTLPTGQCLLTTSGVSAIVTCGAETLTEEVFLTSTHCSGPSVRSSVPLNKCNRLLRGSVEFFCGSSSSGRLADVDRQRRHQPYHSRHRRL
# Test: qHTS Assay for Promiscuous and Specific Inhibitors of Cruzain (without detergent); further: nearly all actives have a fitted effect of over 40% in size;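 on max response, negative = inhibition: plate controls were enzyme without inhibitor for no effect and buffer without enzyme for full effect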
# Conditions: purified cruzain, Z-FR-AMC fluorescence, no detergent
# Procedure, shortened: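 Purified cruzain at 1.5 nM, pre-incubated 15 min with compound at room temperature in 100 mM sodium acetate pH 5.5, 5 mM DTT, 0.00005% Triton X-100. Reaction started with 2 uM Z-FR-AMC; AMC fluorescence increase over 60 s gives rate.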
# Potency means the concentration at half of the fitted maximal effect; tags describe the fitted curve by direction and shape.
Structure (SMILES),Potency,"max response, negative = inhibition"
NC(=O)CSc1nc2scc(-c3ccc(Cl)cc3)c2c(=O)n1Cc1ccccc1,"inconclusive: 39.8 µM [inhibitor, single point]",–
CCCCn1ccnc1C(=O)c1ccc(S(=O)(=O)N(CCOC)CCOC)cc1,"inconclusive: 39.8 µM [activator, single point]",–
CCOC(=O)Cn1c(=O)n(-c2ccccc2OC)c2nc(-c3ccccc3F)nc(C(N)=O)c21,"inconclusive: 25.1 µM [activator, single point]",–
COc1ccc(CCNC(=O)c2nc(SCc3ccc(C)cc3)ncc2Cl)cc1OC,"inconclusive: 20 µM [activator, partial curve]",–
CCOC(=O)N1CCC(=C2c3ccc(Cl)cc3CCc3cccnc32)CC1,"inconclusive: 20 µM [activator, full curve] and inconclusive: 39.8 µM [activator, single point] and inconclusive: 31.6 µM [activator, single point]",–
CC(C)(C)c1ccc(OC(=O)CN2C(=O)C3C4CCC(C4)C3C2=O)cc1 (centres undefined),"inconclusive: 31.6 µM [activator, single point]",–
COc1cc2c(cc1OC)C1C(=O)c3c(O)cc4c(c3OC1CO2)C=CC(C)(C)O4 (centres undefined),"inconclusive: 39.8 µM [activator, single point]",–
Cc1cc2cc(CCNC(=O)c3ccc(S(=O)(=O)N4CCOCC4)cc3)c(=O)[nH]c2cc1C,"inconclusive: 39.8 µM [activator, single point]",–
CCCCSc1nc(SCC(=O)NCc2ccco2)c2c3c(sc2n1)COC(C)(CC)C3 (centres undefined),"inconclusive: 39.8 µM [inhibitor, single point]",–
CCOc1ccc(C(=O)Nc2ccccc2OCc2cc(=O)n3ccccc3n2)cc1,–,inactive: 24.7%
Cc1cc(C(=O)Nc2cccc(F)c2)c2c(C)nn(-c3cccc(Cl)c3C)c2n1,–,inactive: 2.73%
CCCCNC(=O)/C(C#N)=C/c1ccc(-c2ccc(S(=O)(=O)N3CCOCC3)cc2)o1,"inconclusive: 31.6 µM [activator, single point]",–
O=C(Cn1c(=O)n(Cc2ccco2)c(=O)c2ccccc21)Nc1cccc(Cl)c1,"inconclusive: 25.1 µM [inhibitor, single point]",–
COc1cc(O)c2c(=O)cc(-c3ccc(OC)c(-c4c(O)cc(O)c5c(=O)cc(-c6ccc(O)cc6)oc45)c3)oc2c1,"inconclusive: 5.01 µM [inhibitor, partial curve]",–
O=c1c(-c2ccc3c(c2)OCCO3)c(C(F)(F)F)oc2cc(O)cc(O)c12,"inconclusive: 39.8 µM [activator, single point]",–
COc1ccc(NC(=O)NC23CC4(C)CC(C)(CC(C)(C4)C2)C3)cc1OC,"inconclusive: 39.8 µM [activator, single point]",–
CCCN(CCC)CCNC(=O)c1cc2c(=O)n(C)c3ccccc3c2n1C,"inconclusive: 20 µM [inhibitor, partial curve]",–
O=C(OCC(=O)N1CCN(C(=O)c2ccco2)CC1)c1cc(-c2ccc(F)cc2)nc2ccccc12,"inconclusive: 31.6 µM [activator, partial curve]",–
NC(=O)c1c(NC(=O)c2cccs2)sc2c1CCCCCC2,–,inactive: 15%
Cc1nnc(-c2ccc(Oc3ccc(Cl)cc3)c([N+](=O)[O-])c2)o1,"inconclusive: 25.1 µM [activator, single point]",–

Structure (SMILES),Potency,"max response, negative = inhibition"
COc1ccccc1-n1c(SCc2cc(=O)oc3cc(O)ccc23)nc2ccccc2c1=O,active: 25.1 µM,–
Cc1ccc(C(=O)NC(=S)Nc2ccc3[nH]c(=O)[nH]c3c2)cc1,"inconclusive: 20 µM [inhibitor, single point]",–
CCOc1ccc(NS(=O)(=O)c2ccc3[nH]cc(C(=O)N4CCCCCC4)c(=O)c3c2)cc1,–,inactive: 0.181%
COc1cccc(CNS(=O)(=O)c2ccc(-c3cc(C(F)(F)F)on3)s2)c1,–,inactive: -5.36%
O=C(c1ccc2c(c1)OCCO2)N(Cc1cccnc1)c1nc2c(F)cc(F)cc2s1,–,inactive: 28.4%
Cc1ccc2cc3c(NC(=O)c4cccnc4)nn(C)c3nc2c1,"inconclusive: 31.6 µM [activator, single point]",–
COc1cccc(CN2C(=O)C3(SCC(=O)N3c3ccc(C(C)C)cc3)c3ccccc32)c1 (centres undefined),"inconclusive: 31.6 µM [inhibitor, single point]",–
CCc1cccc(NC(=O)c2oc3ccc4c(c3c2C)C(=O)CC(C)(C)O4)c1,"inconclusive: 39.8 µM [inhibitor, single point]",–
Cc1nn(Cc2ccc(Cl)cc2Cl)c(C)c1NC(=O)c1sc2ccccc2c1Cl,"inconclusive: 39.8 µM [inhibitor, single point]",–
CCOC(=O)c1c(C)c(-c2ccccc2)n(CC(=O)NCCC(C)C)c1C,"inconclusive: 39.8 µM [inhibitor, single point]",–
CCOc1ccc(CCNC(=O)CSc2nn(-c3ccc(C)c(Cl)c3)c(=S)s2)cc1OCC,"inconclusive: 25.1 µM [activator, single point]",–
Nc1cccc(N)c1,"inconclusive: 12.6 µM [inhibitor, full curve]",–
COc1cccc(NC(=O)c2ccc3[nH]c(C)cc(=O)c3c2)c1,"inconclusive: 39.8 µM [activator, single point]",–
CC[C@H]1CC[C@H]2[C@@H]3CC=C4C[C@H](OC(C)=O)[C@@H](N)C[C@@]4(C)[C@H]3CC[C@@]12C,–,inactive: -5.39%
COc1ccc(-c2noc(-c3ccc(NC4CCCCC4)c([N+](=O)[O-])c3)n2)cc1,–,inactive: 2.01%
O=C(N/N=C/C=C/c1ccccc1)c1cc2c(ccc3ccccc32)o1,active: 10 µM,–
COc1nc(-c2ccc(Cl)cc2)ccc1-c1noc(-c2cccs2)n1,"inconclusive: 7.94 µM [inhibitor, full curve, poor fit]",–
CCn1c2ccccc2c2cc(NC(=O)CSc3nnc(-c4cccc(C)c4)o3)ccc21,active: 7.94 µM,–
COc1ccc(-c2cc(C(=O)NCCc3ccc(OC)c(OC)c3)c3ccccc3n2)cc1,"inconclusive: 25.1 µM [activator, single point]",–
